Assay results reported in patent US20060070135A1, “Compositions and methods for inhibiting the enzymatic activity of PTP-1B” (priority 1998, published 2006).

target: T1, human PTP-1B (PTP-1B-GST fusion protein) (Homo sapiens, UniProt P18031); experiment: biochemical
T1 sequence (P18031 1-435): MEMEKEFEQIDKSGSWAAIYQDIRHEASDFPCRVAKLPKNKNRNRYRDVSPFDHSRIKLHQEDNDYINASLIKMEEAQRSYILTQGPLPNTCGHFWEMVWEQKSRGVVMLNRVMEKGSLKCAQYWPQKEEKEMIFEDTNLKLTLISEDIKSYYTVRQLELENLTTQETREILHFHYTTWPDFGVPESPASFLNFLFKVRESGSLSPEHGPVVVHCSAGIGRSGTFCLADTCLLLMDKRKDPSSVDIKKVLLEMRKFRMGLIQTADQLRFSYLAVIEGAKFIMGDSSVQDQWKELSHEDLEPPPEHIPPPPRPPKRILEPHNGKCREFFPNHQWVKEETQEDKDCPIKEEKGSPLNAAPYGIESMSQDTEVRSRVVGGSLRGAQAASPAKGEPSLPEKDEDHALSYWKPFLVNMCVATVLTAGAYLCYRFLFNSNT

Point of comparison: `COc1cc(/C=C2/SC(=S)N(c3cccc(Cl)c3)C2=O)cc([N+](=O)[O-])c1O` [compound 22, 3-(3-chlorophenyl)-5-(4-hydroxy-3-methoxy-5-nitrobenzylidene)-2-thioxothiazolidin-4-one], IC50 270 nM. Against it:
- S=C1NC(=S)/C(=C\c2ccc(-c3ccc(Br)cc3)o2)S1 [compound 1, 5-[5-(4-bromophenyl)-furan-2-ylmethylene]-thiazolidine-2,4-dithione] — 19-fold higher, 5230 nM
- O=S(=O)(O)c1cc(N=Nc2ccc(O)cc2)ccc1C=Cc1ccc(N=Nc2ccc(O)cc2)cc1S(=O)(=O)O [compound 2, 1,2-Bis-[4-(4-hydroxyphenylazo)-2-sulfophenyl]-ethylene] — within 1.5-fold, 310 nM
- O=S(=O)(O)c1cc(O)c2c(/N=N/c3c(S(=O)(=O)O)cc4cc(S(=O)(=O)O)cc(O)c4c3O)cc(S(=O)(=O)O)cc2c1 [compound 3, 3-(4′-hydroxy-2′,7′-disulfonaphth-5′-ylazo)-4,5-dihydroxynaphthalene-2,7-disulfonic acid] — within 1.5-fold, 210 nM
- CCc1nnc(NS(=O)(=O)c2ccc(N/C=C(\C#N)c3nc(-c4ccc(Br)cc4)cs3)cc2)s1 [compound 4, 4-{2-[4-(4-bromophenyl)-thiazol-2-yl]-2-cyanovinylamino}-N-(5-ethyl-[1,3,4]thiadiazol-2-yl)-benzenesulfonamide] — 2.3-fold higher, 610 nM
- N#C/C(=C\c1cc(Br)c(O)c(Br)c1)c1nc2ccccc2c(=O)[nH]1 [compound 5, 3-(3,5-dibromo-4-hydroxyphenyl)-2-(4-oxo-3,4-dihydroquinazolin-2-yl)-acrylonitrile] — within 1.5-fold, 370 nM
- Cc1cc(NS(=O)(=O)c2ccc(NC(=O)c3ccc(C(=O)Nc4ccc(S(=O)(=O)Nc5cc(C)on5)cc4)cc3)cc2)no1 [compound 6] — 3.9-fold higher, 1050 nM
- Nc1nonc1/N=N/c1cc(/C=N/c2ccccc2Br)c(O)cc1O [compound 7, 4-(4-aminofurazan-3ylazo)-6-[(2-bromophenylimino)-methyl]-benzene-1,3,diol] — within 1.5-fold, 300 nM
- Nc1nonc1/N=N/c1cc(/C=N/c2cccc3nsnc23)c(O)cc1O [compound 8, 4-(4-aminofurazan-3-ylazo)-6-(benzo[1,2,5]thiadiazol-4-yliminomethyl)-benzene-1,3-diol] — within 1.5-fold, 290 nM
- O=C(O)c1ccc(Nc2nc(Cl)nc(Cl)n2)cc1-c1c2ccc(=O)cc-2oc2cc(O)ccc12 [compound 9, 4-(4,6-dichloro-[1,3,5]triazin-2-ylamino)-2-(6-hydroxy-3-oxo-3H-xanthen-9-yl)benzoic acid] — 3.4-fold higher, 910 nM
- Nc1c(S(=O)(=O)O)cc(S(=O)(=O)O)c2cccc(O)c12 [compound 11, 4-amino-5-hydroxynaphthalene-1,3-disulfonic acid] — 2.1-fold higher, 560 nM
- N#CC(C#N)=C1CSc2sc(=S)sc2SC1 [compound 13, 2-(2-thioxo-[1,3]dithiolo[4,5-b][1,4]dithiepin-6-ylidene)malononitrile] — 1.6-fold higher, 420 nM
- CCc1nnc(NS(=O)(=O)c2ccc(NC(=S)NC(=O)/C=C/c3ccc(C(C)C)cc3)cc2)s1 [compound 14, N-(5-ethyl-[1,3,4]thiadiazol-2-yl)-4-{3-[3-(4-isopropylphenyl)-acryloyl]-thioureido}-benzenesulfonamide] — 2.3-fold higher, 620 nM
- COc1ccc(-c2csc(N3N=C(c4ccc([N+](=O)[O-])cc4)C(=NNc4ccc(S(N)(=O)=O)cc4)C3=O)n2)cc1 [compound 15, 4-{N′-[1-[4-(4-methoxyphenyl)-thiazol-2-yl]-3-(4-nitrophenyl)-5-oxo-1,5-dihydropyrazol-4-ylidene]-hydrazino}-benzenesulfonamide] — 3-fold higher, 810 nM
- O=C(/C=C/c1ccco1)Nc1ccc(C(=O)O)cc1NC(=O)/C=C/c1ccco1 [compound 16, 3,4-bis-(3-furan-2-ylacryloylamino)-benzoic acid] — 3.7-fold higher, 1000 nM
- O=C(O)c1ccc(N2C(=O)/C(=C/c3ccc(-c4ccc([N+](=O)[O-])cc4)o3)C=C2c2ccccc2)cc1 [compound 17, 4-{3-[5-(4-nitrophenyl)-furan-2-ylmethylene]-2-oxo-5-phenyl-2,3-dihydropyrrol-1-yl}-benzoic acid] — 2.9-fold higher, 790 nM
- Nc1nnnn1/N=C/c1cc(I)cc(I)c1O [compound 19, 2-[(5-aminotetrazol-1-ylimino)-methyl]-4,6-diiodophenol] — 5.2-fold higher, 1400 nM
- O=[N+]([O-])c1ccc(O)c(/C=N/N=c2/[nH]c3nonc3nc2Nc2ccc(I)cc2)c1 [compound 20, 2-{[6-(4-iodophenylamino)-4H-[1,2,5]oxadiazolo[3,4-b]pyrazin-5-ylidene]-hydrazonomethyl}-4-nitrophenol] — 2.7-fold higher, 730 nM
- O=C1C=CC(=O)c2c(O)cccc21 [compound 21, 5-hydroxy-[1,4]-naphthoquinone] — 8.2-fold higher, 2210 nM
- N#Cc1c(N)c2c(c(O)c1C#N)C(=O)c1ccccc1C2=O [compound 24, 1-amino-4-hydroxy-9,10-dioxo-dihydroanthracene-2,3-dicarbonitrile] — 3.1-fold higher, 830 nM
